{
  "source": "a collection of fitness landscapes (doi:10.1016/j.celrep.2020.107928)",
  "parents": {"B1": {"name": "Caulobacter ParB omega fusion; a variant is named by its letters at X, in order, B8GW30 (parent)", "chain": "MESVVVGEPGMSEGRRGLGRGLSALLGEVDAAPAQAPGEQLGGSREAPIEILQRNPDQPRRTFREEDLEDLSNSIREKGVLQPILVRPSPDTAGEYQIVAGERAWRAAQRAGLKTVPIMVRELDDLAVLEIGIIENVQRADLNVLEEALSYKVLMEKFERTQENIAQTIGKSXSHVANXMRLLXLPDEVQSYLVSGELTAXHARAIAAAADPVALAKQIIEGGLSVRETEALARKAPNLSAGKSKGGRPPRVKDTDTQALESDLSSVLGLDVSIDHRGSTGTLTITYATLEQLDDLCNRLTRGI"}},
  "note": "In all, about 81,000 sequences were measured (“one-hybrid fitness for binding NBS DNA”: median about -0.1, highest 2% from about 0.36 on). The list shows a part of the results.",
  "data": [
    {"variants_of": "B1", "assay": "one-hybrid fitness for binding NBS DNA (the Noc-binding site; scaled: cognate 1, non-cognate 0); higher = stronger binding", "conditions": "with NBS DNA site", "summary_of_the_method": "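Values were rescaled so that cognate is 1 and non-cognate is 0. Each is a fitness, the log change in a variant's read ratio to wild type from Illumina reads of plasmids before and after selection, with three replicate libraries pooled and variants under 10 reads dropped. Selection of the Caulobacter ParB libraries, four specificity codons randomised, used E. coli USO with a HIS3 reporter, site 19 bp from the promoter, on M9-minus-histidine with 0.1 mM IPTG and 5 mM 3-AT for 48 hours at 37°C.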", "values": [
      {"variant": "EFSS", "one-hybrid fitness for binding NBS DNA": "≤ 0.2"},
      {"variant": "TARI", "one-hybrid fitness for binding NBS DNA": "≤ 0.2"},
      {"variant": "PHYG", "one-hybrid fitness for binding NBS DNA": "≤ 0.2"},
      {"variant": "NAGS", "one-hybrid fitness for binding NBS DNA": "≤ 0.2"},
      {"variant": "DGCF", "one-hybrid fitness for binding NBS DNA": "≤ 0.2"},
      {"variant": "DPYS", "one-hybrid fitness for binding NBS DNA": "≤ 0.2"},
      {"variant": "QDGF", "one-hybrid fitness for binding NBS DNA": "≤ 0.2"},
      {"variant": "LMLD", "one-hybrid fitness for binding NBS DNA": "≤ 0.2"},
      {"variant": "YQMN", "one-hybrid fitness for binding NBS DNA": "≤ 0.2"},
      {"variant": "QNTV", "one-hybrid fitness for binding NBS DNA": "≤ 0.2"},
      {"variant": "HHCV", "one-hybrid fitness for binding NBS DNA": "≤ 0.2"},
      {"variant": "EVHS", "one-hybrid fitness for binding NBS DNA": "≤ 0.2"},
      {"variant": "TTDY", "one-hybrid fitness for binding NBS DNA": "≤ 0.2"},
      {"variant": "TKDQ", "one-hybrid fitness for binding NBS DNA": "≤ 0.2"},
      {"variant": "RRTT", "one-hybrid fitness for binding NBS DNA": 0.716},
      {"variant": "IPEG", "one-hybrid fitness for binding NBS DNA": "≤ 0.2"},
      {"variant": "NCDG", "one-hybrid fitness for binding NBS DNA": "≤ 0.2"},
      {"variant": "SMPP", "one-hybrid fitness for binding NBS DNA": "≤ 0.2"},
      {"variant": "EMYW", "one-hybrid fitness for binding NBS DNA": "≤ 0.2"},
      {"variant": "ILLY", "one-hybrid fitness for binding NBS DNA": "≤ 0.2"},
      {"variant": "GIEA", "one-hybrid fitness for binding NBS DNA": "≤ 0.2"},
      {"variant": "NITW", "one-hybrid fitness for binding NBS DNA": "≤ 0.2"},
      {"variant": "PENL", "one-hybrid fitness for binding NBS DNA": "≤ 0.2"},
      {"variant": "EFYS", "one-hybrid fitness for binding NBS DNA": "≤ 0.2"},
      {"variant": "QKNI", "one-hybrid fitness for binding NBS DNA": "≤ 0.2"},
      {"variant": "CYSH", "one-hybrid fitness for binding NBS DNA": "≤ 0.2"},
      {"variant": "RTQI", "one-hybrid fitness for binding NBS DNA": "≤ 0.2"},
      {"variant": "MDNV", "one-hybrid fitness for binding NBS DNA": "≤ 0.2"},
      {"variant": "AIYS", "one-hybrid fitness for binding NBS DNA": "≤ 0.2"},
      {"variant": "VPGW", "one-hybrid fitness for binding NBS DNA": "≤ 0.2"},
      {"variant": "YPSA", "one-hybrid fitness for binding NBS DNA": "≤ 0.2"},
      {"variant": "SRMY", "one-hybrid fitness for binding NBS DNA": "≤ 0.2"},
      {"variant": "VSPG", "one-hybrid fitness for binding NBS DNA": "≤ 0.2"},
      {"variant": "QHLM", "one-hybrid fitness for binding NBS DNA": "≤ 0.2"},
      {"variant": "IPPD", "one-hybrid fitness for binding NBS DNA": "≤ 0.2"},
      {"variant": "SVYE", "one-hybrid fitness for binding NBS DNA": "≤ 0.2"},
      {"variant": "YACG", "one-hybrid fitness for binding NBS DNA": "≤ 0.2"},
      {"variant": "SLAS", "one-hybrid fitness for binding NBS DNA": "≤ 0.2"},
      {"variant": "TIRD", "one-hybrid fitness for binding NBS DNA": "≤ 0.2"},
      {"variant": "VMIL", "one-hybrid fitness for binding NBS DNA": "≤ 0.2"},
      {"variant": "PVRP", "one-hybrid fitness for binding NBS DNA": "≤ 0.2"},
      {"variant": "RSGY", "one-hybrid fitness for binding NBS DNA": "≤ 0.2"},
      {"variant": "NASP", "one-hybrid fitness for binding NBS DNA": "≤ 0.2"},
      {"variant": "WNIT", "one-hybrid fitness for binding NBS DNA": "≤ 0.2"},
      {"variant": "TQYW", "one-hybrid fitness for binding NBS DNA": "≤ 0.2"},
      {"variant": "KWDG", "one-hybrid fitness for binding NBS DNA": "≤ 0.2"},
      {"variant": "PYYD", "one-hybrid fitness for binding NBS DNA": "≤ 0.2"},
      {"variant": "TVTG", "one-hybrid fitness for binding NBS DNA": "≤ 0.2"},
      {"variant": "FGMS", "one-hybrid fitness for binding NBS DNA": "≤ 0.2"},
      {"variant": "TPCN", "one-hybrid fitness for binding NBS DNA": "≤ 0.2"},
      {"variant": "FSTR", "one-hybrid fitness for binding NBS DNA": "≤ 0.2"},
      {"variant": "FMDS", "one-hybrid fitness for binding NBS DNA": "≤ 0.2"},
      {"variant": "HSKL", "one-hybrid fitness for binding NBS DNA": "≤ 0.2"},
      {"variant": "LHWG", "one-hybrid fitness for binding NBS DNA": "≤ 0.2"},
      {"variant": "CMVY", "one-hybrid fitness for binding NBS DNA": "≤ 0.2"},
      {"variant": "THSF", "one-hybrid fitness for binding NBS DNA": "≤ 0.2"},
      {"variant": "TQRS", "one-hybrid fitness for binding NBS DNA": "≤ 0.2"},
      {"variant": "LLTA", "one-hybrid fitness for binding NBS DNA": "≤ 0.2"},
      {"variant": "CRNH", "one-hybrid fitness for binding NBS DNA": "≤ 0.2"},
      {"variant": "PWIT", "one-hybrid fitness for binding NBS DNA": "≤ 0.2"},
      {"variant": "KTHC", "one-hybrid fitness for binding NBS DNA": "≤ 0.2"},
      {"variant": "ASCT", "one-hybrid fitness for binding NBS DNA": "≤ 0.2"},
      {"variant": "QNQC", "one-hybrid fitness for binding NBS DNA": "≤ 0.2"},
      {"variant": "QNHK", "one-hybrid fitness for binding NBS DNA": "≤ 0.2"},
      {"variant": "NCKC", "one-hybrid fitness for binding NBS DNA": "≤ 0.2"},
      {"variant": "PSIC", "one-hybrid fitness for binding NBS DNA": "≤ 0.2"},
      {"variant": "AVNA", "one-hybrid fitness for binding NBS DNA": "≤ 0.2"},
      {"variant": "ASPS", "one-hybrid fitness for binding NBS DNA": "≤ 0.2"},
      {"variant": "PPGS", "one-hybrid fitness for binding NBS DNA": "≤ 0.2"},
      {"variant": "QEHN", "one-hybrid fitness for binding NBS DNA": "≤ 0.2"},
      {"variant": "PNLM", "one-hybrid fitness for binding NBS DNA": "≤ 0.2"},
      {"variant": "KCKG", "one-hybrid fitness for binding NBS DNA": "≤ 0.2"},
      {"variant": "VMNR", "one-hybrid fitness for binding NBS DNA": "≤ 0.2"},
      {"variant": "FLTC", "one-hybrid fitness for binding NBS DNA": "≤ 0.2"},
      {"variant": "TAAG", "one-hybrid fitness for binding NBS DNA": "≤ 0.2"},
      {"variant": "DRLI", "one-hybrid fitness for binding NBS DNA": "≤ 0.2"},
      {"variant": "LKMV", "one-hybrid fitness for binding NBS DNA": "≤ 0.2"},
      {"variant": "SRPV", "one-hybrid fitness for binding NBS DNA": "≤ 0.2"},
      {"variant": "REPY", "one-hybrid fitness for binding NBS DNA": "≤ 0.2"},
      {"variant": "RSYR", "one-hybrid fitness for binding NBS DNA": 0.381},
      {"variant": "KFMR", "one-hybrid fitness for binding NBS DNA": "≤ 0.2"},
      {"variant": "IGPC", "one-hybrid fitness for binding NBS DNA": "≤ 0.2"},
      {"variant": "ACFG", "one-hybrid fitness for binding NBS DNA": "≤ 0.2"},
      {"variant": "MNKT", "one-hybrid fitness for binding NBS DNA": "≤ 0.2"}
    ]}
  ]
}
